# The supplement of paper PMC8728848
# Some of the results follow.
# Columns and labels:
# Test in all cases: glycan array binding signal (z-score within array); higher = stronger binding
# Settings in all cases: glycan notation: IUPAC condensed, linker removed
# [1] = target: GlcNAc(b1-2)[GlcNAc(b1-4)]Man(a1-3)[GlcNAc(b1-4)][GlcNAc(b1-2)Man(a1-6)]Man(b1-4)GlcNAc(b1-4)GlcNAc
# Procedure, shortened: (§1)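 The binding signal is a Z-score computed within each array. Data were drawn from 3228 arrays in the Consortium for Functional Glycomics database, restricted to those with a known protein sequence. Scores were averaged over arrays of the same protein sequence at different concentrations or buffers, and over linkers, and negative values can be taken as non-binding.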
# [2] = target: GlcNAc(b1-2)[GlcNAc(b1-4)]Man(a1-3)[GlcNAc(b1-4)][GlcNAc(b1-2)[GlcNAc(b1-6)]Man(a1-6)]Man(b1-4)GlcNAc(b1-4)GlcNAc
# Procedure, shortened: as §1
# [3] = target: GlcNAc(b1-2)[GlcNAc(b1-4)]Man(a1-3)[GlcNAc(b1-4)][GlcNAc(b1-2)[GlcNAc(b1-6)]Man(a1-6)]Man(b1-4)GlcNAc(b1-4)[Fuc(a1-6)]GlcNAc
# Procedure, shortened: as §1
# [4] = target: GlcNAc(b1-2)[GlcNAc(b1-6)]Man(a1-6)[GlcNAc(b1-2)Man(a1-3)]Man(b1-4)GlcNAc(b1-4)GlcNAc
# Procedure, shortened: as §1
# [5] = target: GlcNAc(b1-2)[GlcNAc(b1-6)]Man(a1-6)[GlcNAc(b1-2)Man(a1-3)]Man(b1-4)GlcNAc(b1-4)[Fuc(a1-6)]GlcNAc
# Procedure, shortened: as §1
# [6] = target: GlcNAc(b1-2)[GlcNAc(b1-6)]Man(a1-6)[GlcNAc(b1-4)][GlcNAc(b1-2)Man(a1-3)]Man(b1-4)GlcNAc(b1-4)GlcNAc
# Procedure, shortened: as §1
# [7] = target: GlcNAc(b1-3)Fuc
# Procedure, shortened: as §1
# [8] = target: GlcNAc(b1-3)Gal
# Procedure, shortened: as §1
# [9] = target: GlcNAc(b1-3)Gal(b1-3)GalNAc
# Procedure, shortened: as §1
# [10] = target: GlcNAc(b1-3)Gal(b1-4)Glc
# Procedure, shortened: as §1
# [11] = target: GlcNAc(b1-3)Gal(b1-4)GlcNAc
# Procedure, shortened: as §1
# [12] = target: GlcNAc(b1-3)Gal(b1-4)GlcNAc(b1-2)Man(a1-3)[GlcNAc(b1-3)Gal(b1-4)GlcNAc(b1-2)Man(a1-6)]Man(b1-4)GlcNAc(b1-4)GlcNAc
# Procedure, shortened: as §1
# [13] = target: GlcNAc(b1-3)Gal(b1-4)GlcNAc(b1-2)Man(a1-3)[GlcNAc(b1-3)Gal(b1-4)GlcNAc(b1-2)Man(a1-6)]Man(b1-4)GlcNAc(b1-4)[Fuc(a1-6)]GlcNAc
# Procedure, shortened: as §1
# [14] = target: GlcNAc(b1-3)Gal(b1-4)GlcNAc(b1-2)[GlcNAc(b1-3)Gal(b1-4)GlcNAc(b1-6)]Man(a1-6)[GlcNAc(b1-3)Gal(b1-4)GlcNAc(b1-2)Man(a1-3)]Man(b1-4)GlcNAc(b1-4)GlcNAc
# Procedure, shortened: as §1
# [15] = target: GlcNAc(b1-3)Gal(b1-4)GlcNAc(b1-3)Gal(b1-4)GlcNAc
# Procedure, shortened: as §1
# [16] = target: GlcNAc(b1-3)Gal(b1-4)GlcNAc(b1-3)Gal(b1-4)GlcNAc(b1-2)Man(a1-3)[GlcNAc(b1-3)Gal(b1-4)GlcNAc(b1-3)Gal(b1-4)GlcNAc(b1-2)Man(a1-6)]Man(b1-4)GlcNAc(b1-4)GlcNAc
# Procedure, shortened: as §1
# [17] = target: GlcNAc(b1-3)Gal(b1-4)GlcNAc(b1-3)Gal(b1-4)GlcNAc(b1-2)Man(a1-3)[GlcNAc(b1-3)Gal(b1-4)GlcNAc(b1-3)Gal(b1-4)GlcNAc(b1-2)Man(a1-6)]Man(b1-4)GlcNAc(b1-4)[Fuc(a1-6)]GlcNAc
# Procedure, shortened: as §1
# [18] = target: GlcNAc(b1-3)Gal(b1-4)GlcNAc(b1-3)Gal(b1-4)GlcNAc(b1-2)[GlcNAc(b1-3)Gal(b1-4)GlcNAc(b1-3)Gal(b1-4)GlcNAc(b1-6)]Man(a1-6)[GlcNAc(b1-3)Gal(b1-4)GlcNAc(b1-3)Gal(b1-4)GlcNAc(b1-2)Man(a1-3)]Man(b1-4)GlcNAc(b1-4)[Fuc(a1-6)]GlcNAc
# Procedure, shortened: as §1
# [19] = target: GlcNAc(b1-3)Gal(b1-4)GlcNAc(b1-3)Gal(b1-4)GlcNAc(b1-3)Gal(b1-4)GlcNAc(b1-2)Man(a1-3)[GlcNAc(b1-3)Gal(b1-4)GlcNAc(b1-3)Gal(b1-4)GlcNAc(b1-3)Gal(b1-4)GlcNAc(b1-2)Man(a1-6)]Man(b1-4)GlcNAc(b1-4)GlcNAc
# Procedure, shortened: as §1
# [20] = target: GlcNAc(b1-3)Gal(b1-4)GlcNAc(b1-3)Gal(b1-4)GlcNAc(b1-3)Gal(b1-4)GlcNAc(b1-2)Man(a1-3)[GlcNAc(b1-3)Gal(b1-4)GlcNAc(b1-3)Gal(b1-4)GlcNAc(b1-3)Gal(b1-4)GlcNAc(b1-2)Man(a1-6)]Man(b1-4)GlcNAc(b1-4)[Fuc(a1-6)]GlcNAc
# Procedure, shortened: as §1
# [21] = target: GlcNAc(b1-3)Gal(b1-4)GlcNAc(b1-3)Gal(b1-4)GlcNAc(b1-3)Gal(b1-4)GlcNAc(b1-2)[GlcNAc(b1-3)Gal(b1-4)GlcNAc(b1-3)Gal(b1-4)GlcNAc(b1-3)Gal(b1-4)GlcNAc(b1-6)]Man(a1-6)[GlcNAc(b1-3)Gal(b1-4)GlcNAc(b1-3)Gal(b1-4)GlcNAc(b1-3)Gal(b1-4)GlcNAc(b1-2)Man(a1-3)]Man(b1-4)GlcNAc(b1-4)[Fuc(a1-6)]GlcNAc
# Procedure, shortened: as §1
# [22] = target: GlcNAc(b1-3)Gal(b1-4)GlcNAc(b1-3)Gal(b1-4)GlcNAc(b1-3)Gal(b1-4)GlcNAc(b1-3)Gal(b1-4)GlcNAc(b1-2)Man(a1-3)[GlcNAc(b1-3)Gal(b1-4)GlcNAc(b1-3)Gal(b1-4)GlcNAc(b1-3)Gal(b1-4)GlcNAc(b1-3)Gal(b1-4)GlcNAc(b1-2)Man(a1-6)]Man(b1-4)GlcNAc(b1-4)GlcNAc
# Procedure, shortened: as §1
# [23] = target: GlcNAc(b1-3)Gal(b1-4)GlcNAc(b1-3)Gal(b1-4)GlcNAc(b1-3)Gal(b1-4)GlcNAc(b1-3)Gal(b1-4)GlcNAc(b1-2)Man(a1-3)[GlcNAc(b1-3)Gal(b1-4)GlcNAc(b1-3)Gal(b1-4)GlcNAc(b1-3)Gal(b1-4)GlcNAc(b1-3)Gal(b1-4)GlcNAc(b1-2)Man(a1-6)]Man(b1-4)GlcNAc(b1-4)[Fuc(a1-6)]GlcNAc
# Procedure, shortened: as §1
# [24] = target: GlcNAc(b1-3)Gal(b1-4)GlcNAc(b1-3)Gal(b1-4)GlcNAc(b1-3)Gal(b1-4)GlcNAc(b1-3)Gal(b1-4)GlcNAc(b1-2)[GlcNAc(b1-3)Gal(b1-4)GlcNAc(b1-3)Gal(b1-4)GlcNAc(b1-3)Gal(b1-4)GlcNAc(b1-3)Gal(b1-4)GlcNAc(b1-6)]Man(a1-6)[GlcNAc(b1-3)Gal(b1-4)GlcNAc(b1-3)Gal(b1-4)GlcNAc(b1-3)Gal(b1-4)GlcNAc(b1-3)Gal(b1-4)GlcNAc(b1-2)Man(a1-3)]Man(b1-4)GlcNAc(b1-4)[Fuc(a1-6)]GlcNAc
# Procedure, shortened: as §1
# [25] = target: GlcNAc(b1-3)Gal(b1-4)GlcNAc(b1-3)Gal(b1-4)GlcNAc(b1-3)GalNAc
# Procedure, shortened: as §1
# [26] = target: GlcNAc(b1-3)Gal(b1-4)GlcNAc(b1-3)GalNAc
# Procedure, shortened: as §1
# [27] = target: GlcNAc(b1-3)Gal(b1-4)GlcNAc(b1-3)[GlcNAc(b1-3)Gal(b1-4)GlcNAc(b1-3)]GalNAc
# Procedure, shortened: as §1
# [28] = target: GlcNAc(b1-3)Gal(b1-4)GlcNAc(b1-6)[Gal(b1-3)]GalNAc
# Procedure, shortened: as §1
# [29] = target: GlcNAc(b1-3)Gal(b1-4)GlcNAc(b1-6)[GlcNAc(b1-3)Gal(b1-3)]GalNAc
# Procedure, shortened: as §1
# [30] = target: GlcNAc(b1-3)Gal(b1-4)GlcNAc(b1-6)[GlcNAc(b1-3)]Gal(b1-4)GlcNAc
# Procedure, shortened: as §1
# [31] = target: GlcNAc(b1-3)GalNAc
# Procedure, shortened: as §1
# [32] = target: GlcNAc(b1-3)Man
# Procedure, shortened: as §1
# [33] = target: GlcNAc(b1-3)[GlcNAc(b1-4)][GlcNAc(b1-6)]GlcNAc
# Procedure, shortened: as §1
# [34] = target: GlcNAc(b1-3)[GlcNAc(b1-6)]Gal(b1-4)GlcNAc
# Procedure, shortened: as §1
# [35] = target: GlcNAc(b1-3)[GlcNAc(b1-6)]GalNAc
# Procedure, shortened: as §1
# [36] = target: GlcNAc(b1-4)Gal(b1-4)GlcNAc
# Procedure, shortened: as §1
# [37] = target: GlcNAc(b1-4)GlcNAc
# Procedure, shortened: as §1
# [38] = target: GlcNAc(b1-4)GlcNAc(b1-4)GlcNAc
# Procedure, shortened: as §1
binder,measurement,setting,value
"Epa3 (Candida glabrata), Q6VBI8_CANGB (protein) MGSSHHHHHHSSGLVPRGSHMNDLGFSLFEKRELSSQNPFGYPIGCSPQDVAIIPGLTMELYSYPIVSGTPPNCYDASYVDPEYPRTGYLKRKMVGKSTGVTGNLNYKYSVEKACMVKYGNLPAGYNYNEPLTVSNFTMILYGYFKAQTTGLHTFFVNADDLLYINFGAGNAFDCCKREDSKTKLGEYVAYDIWHVDSSKNKVSLFLEKDLYYPIRMFFNNIGKDSSLDLSFSVNGATDQISDFSGYLYSVPDQPDTCPAHIGYDTTCR",glycan array binding signal (z-score),[1],-0.319
same,glycan array binding signal (z-score),[2],-0.181
same,glycan array binding signal (z-score),[3],-0.314
same,glycan array binding signal (z-score),[4],-0.361
same,glycan array binding signal (z-score),[5],0.029
same,glycan array binding signal (z-score),[6],-0.398
same,glycan array binding signal (z-score),[7],-0.314
same,glycan array binding signal (z-score),[8],-0.236
same,glycan array binding signal (z-score),[9],-0.093
same,glycan array binding signal (z-score),[10],-0.367
same,glycan array binding signal (z-score),[11],-0.201
same,glycan array binding signal (z-score),[12],-0.167
same,glycan array binding signal (z-score),[13],0.225
same,glycan array binding signal (z-score),[14],0.405
same,glycan array binding signal (z-score),[15],-0.302
same,glycan array binding signal (z-score),[16],1.18
same,glycan array binding signal (z-score),[17],0.201
same,glycan array binding signal (z-score),[18],0.227
same,glycan array binding signal (z-score),[19],-0.154
same,glycan array binding signal (z-score),[20],0.076
same,glycan array binding signal (z-score),[21],-0.083
same,glycan array binding signal (z-score),[22],-0.125
same,glycan array binding signal (z-score),[23],-0.196
same,glycan array binding signal (z-score),[24],-0.182
same,glycan array binding signal (z-score),[25],-0.33
same,glycan array binding signal (z-score),[26],-0.265
same,glycan array binding signal (z-score),[27],-0.249
same,glycan array binding signal (z-score),[28],0.905
same,glycan array binding signal (z-score),[29],-0.276
same,glycan array binding signal (z-score),[30],-0.338
same,glycan array binding signal (z-score),[31],-0.213
same,glycan array binding signal (z-score),[32],-0.241
same,glycan array binding signal (z-score),[33],-0.297
same,glycan array binding signal (z-score),[34],-0.359
same,glycan array binding signal (z-score),[35],-0.176
same,glycan array binding signal (z-score),[36],-0.213
same,glycan array binding signal (z-score),[37],-0.273
same,glycan array binding signal (z-score),[38],-0.106
